T1: human NPRA (hNPRA) (Homo sapiens, UniProt P16066)
T1 construct: expressed in transfected cells
T1 sequence (P16066 33-1061): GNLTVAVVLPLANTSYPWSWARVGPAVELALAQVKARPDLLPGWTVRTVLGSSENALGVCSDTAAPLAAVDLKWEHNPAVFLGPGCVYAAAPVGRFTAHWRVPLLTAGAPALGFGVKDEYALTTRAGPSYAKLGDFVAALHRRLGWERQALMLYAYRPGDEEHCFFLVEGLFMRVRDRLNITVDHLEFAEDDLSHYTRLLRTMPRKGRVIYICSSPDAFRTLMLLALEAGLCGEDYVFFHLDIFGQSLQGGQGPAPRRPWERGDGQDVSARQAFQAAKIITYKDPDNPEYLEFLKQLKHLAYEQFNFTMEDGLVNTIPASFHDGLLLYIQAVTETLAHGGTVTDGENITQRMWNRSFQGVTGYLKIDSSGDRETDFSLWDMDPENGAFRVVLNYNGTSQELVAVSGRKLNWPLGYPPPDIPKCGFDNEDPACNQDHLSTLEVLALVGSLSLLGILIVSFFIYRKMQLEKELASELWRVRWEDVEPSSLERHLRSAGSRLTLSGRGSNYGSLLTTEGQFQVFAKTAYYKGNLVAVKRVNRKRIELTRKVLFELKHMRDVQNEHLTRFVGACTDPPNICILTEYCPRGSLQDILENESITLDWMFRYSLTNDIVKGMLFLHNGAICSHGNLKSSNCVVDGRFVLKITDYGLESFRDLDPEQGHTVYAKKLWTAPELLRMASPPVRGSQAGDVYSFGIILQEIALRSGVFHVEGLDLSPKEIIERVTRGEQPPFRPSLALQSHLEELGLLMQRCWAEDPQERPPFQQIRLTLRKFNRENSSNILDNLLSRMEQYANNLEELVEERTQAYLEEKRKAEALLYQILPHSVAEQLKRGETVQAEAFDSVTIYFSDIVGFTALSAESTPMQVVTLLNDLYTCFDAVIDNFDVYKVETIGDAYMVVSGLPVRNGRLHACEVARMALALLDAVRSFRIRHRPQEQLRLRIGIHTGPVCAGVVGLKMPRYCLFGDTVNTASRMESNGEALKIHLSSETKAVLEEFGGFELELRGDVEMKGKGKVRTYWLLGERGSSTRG


Target: T1, human NPRA (hNPRA)
Test: cGMP quantification (HTRF) on stable hNPRA-CHO k1 cells (res, ics, pcs samples)
Type: cell-based
Conditions: for qualit. activity of corresp. ANP cpd.: value of the ANP engrafted construct with same integration locus and N-/C-terminal sequence (named in Table 5)
Experimental: All activities shown in Tables 7 and 8 were measured on cells with heterologous over expression of human NPRA (hNPRA) by use of a cGMP quantification assay conducted according to manufacturer's instructions (cisbio; 62GM2PEH). In brief, the assay quantifies cGMP in buffered solution or cell-culture supernatants based on the competition between cGMP produced by the cell as result of the NPRA stimulation through the (natriuretic peptide) sample and d2 labelled cGMP for binding to a Cryptate labelled antibody. Sample cGMP and d2 labeled cGMP compete for binding to a limited number of sites on Cryptate labeled anti-cGMP antibodies, and consequently, HTRF® specific fluorescent signal (i.e. energy transfer) is inversely proportional to the concentration of cGMP in the sample.
Dose-response curve data were analyzed with GraphPad Prism (version 7.00 for Windows, GraphPad Software, La Jolla California USA) and EC50 were fitted according to Y=Bottom+(Top−Bottom)/(1+10^((Log EC50−X)*HillSlope)) applying constraints for bottom, top and slope (shared value for all data sets of the respective experiment).
The raw compound sample activity on stable hNPRA-CHO k1 cells was first assessed by comparison to the negative control TPP-5657 and to a positive sample, in particular TPP-5661. Controls and res were tested in quadruplets in two concentrations with a relative dilution factor of 5 aiming for a fluorescent signal (s) in the dynamic range of the assay. […] Values listed in Table 7, columns “activity res” and “stdev activity res”, represent the average of the results for the two concentrations and the respective standard deviation. Res signals less than half of the signal of the reference compound TPP-5661 (36%) were assessed as not active (n.a.).
The activity of several raw compound samples on stable hNPRA-CHO k1 cells was reassessed by comparison to reference sample TPP-5661 in 2.5-fold dilution series (8 concentrations) starting with a 5-fold dilution. The “log EC50” fit value as activity measure of the res was set in relation to the corresponding value of the reference res TPP-5661 by calculating the delta “log EC50” _compound−“log EC50” _TPP-5661; resulting values are listed in Table 7, column “rel. activity res”. […] All samples were applied in quadruplets.
The activity of isolated compound samples on stable hNPRA-CHO k1 cells was assessed by EC50 determination and comparison to reference sample TPP-5661. Samples were tested in 2.5-fold dilution series from 80 nM to 0.13 nM. The log EC50 fit value as activity measure of the ics was set in relation to the corresponding value of the reference ics TPP-5661 (−8.8) by calculating the delta log EC50_compound−log EC50_TPP-5661; resulting values are listed in Table 7, column “rel. log EC50 ics”. All samples were applied in quadruplets.
The activity of purified compound samples on stable hNPRA-CHO k1 cells was assessed in multiple experiments by EC50 determination and comparison to reference sample TPP-5661. Samples were tested in dilution series at least in quadruplets. […] The log EC50 fit value as activity measure of the pcs was set in relation to the corresponding value of the reference TPP-5661 in the respective experiment (in average −9.2, standard deviation 0.5) by calculating the delta log EC50_compound−log EC50_TPP-5661.
Compounds showing an activity in res without confirmation as ics or pcs are marked with an unified “y”, and compounds assessed as not active (“n.a.” in column “activity res”) probably due to their very low expression level (≤1 μg/ml, “n.e.” in column “μg/ml res”) are marked accordingly.

[1] = ANP engrafted constructs, summarized assessment relative to TPP-5661 (excerpt of Table 7)
[2] = summarized qualitative assessment over res, ics, pcs (CHO and HEK293) data

Molecule	qualit. activity [1]	qualit. activity [2]	qualit. activity of corresp. ANP cpd.	qualit. activity on hNPRA (BNP engrafted constructs, purified compound samples, stable hNPRA-CHO k1 cells)
80: ANP engrafted antibody, CDRH2 (antibody) heavy: EVQLLESGGGLVQPGGSLRLSCAASGFTFSSYAMSWVRQAPGKGLEWVSAISGSTYISNVNHKPDGGSGGSLRRSSCFGGRMDRIGAQSGLGCNSFRYGSNTKVDKKVEGGSTYYADSVKGRFTISRDNSKNTLYLQMNSLRAEDTAVYYCAKLTGAEYFQHWGQGTLVTVSS[here human IgG1 constant region without letters] light: QSVLTQPPSVSGAPGQRVTISCTGSSSNIGAGYDVHWYQQLPGTAPKLLIYGNSNRPSGVPDRFSGSKSGTSASLAITGLQAEDEADYYCQSYDSSLSGVVFGGGTKLTVLGQPKAAPSVTLFPPSSEELQANKATLVCLISDFYPGAVTVAWKADSSPVKAGVETTTPSKQSNNKYAASSYLSLTPEQWKSHRSYSCQVTHEGSTVEKTVAPTECS	++ (relative log EC50<0.7 were assessed as very active)	++ (relative log EC50<0.7 were assessed as very active)	++ (relative log EC50<0.7 were assessed as very active)	–
94: ANP engrafted antibody, CDRH2 (antibody) heavy: EVQLLESGGGLVQPGGSLRLSCAASGFTFSSYAMSWVRQAPGKGLEWVSAISGPNPNPNPNPNSPDGGSGGSLRRSSCFGGRMDRIGAQSGLGCNSFRYGSYNPNPNPNPNPGSTYYADSVKGRFTISRDNSKNTLYLQMNSLRAEDTAVYYCAKLTGAEYFQHWGQGTLVTVSS[here human IgG1 constant region without letters] light: QSVLTQPPSVSGAPGQRVTISCTGSSSNIGAGYDVHWYQQLPGTAPKLLIYGNSNRPSGVPDRFSGSKSGTSASLAITGLQAEDEADYYCQSYDSSLSGVVFGGGTKLTVLGQPKAAPSVTLFPPSSEELQANKATLVCLISDFYPGAVTVAWKADSSPVKAGVETTTPSKQSNNKYAASSYLSLTPEQWKSHRSYSCQVTHEGSTVEKTVAPTECS	+++ (highest activities were observed at relative log EC50 below −0.7)	+++ (highest activities were observed at relative log EC50 below −0.7)	+++ (highest activities were observed at relative log EC50 below −0.7)	–
91: ANP engrafted antibody, CDRH2 (antibody) heavy: EVQLLESGGGLVQPGGSLRLSCAASGFTFSSYAMSWVRQAPGKGLEWVSAISGSGSGSGSGSGSPDGGSGGSLRRSSCFGGRMDRIGAQSGLGCNSFRYGSYGSGSGSGSGSGSTYYADSVKGRFTISRDNSKNTLYLQMNSLRAEDTAVYYCAKLTGAEYFQHWGQGTLVTVSS[here human IgG1 constant region without letters] light: QSVLTQPPSVSGAPGQRVTISCTGSSSNIGAGYDVHWYQQLPGTAPKLLIYGNSNRPSGVPDRFSGSKSGTSASLAITGLQAEDEADYYCQSYDSSLSGVVFGGGTKLTVLGQPKAAPSVTLFPPSSEELQANKATLVCLISDFYPGAVTVAWKADSSPVKAGVETTTPSKQSNNKYAASSYLSLTPEQWKSHRSYSCQVTHEGSTVEKTVAPTECS	++ (relative log EC50<0.7 were assessed as very active)	–	–	–
125: ANP engrafted antibody, CDRH3 (antibody) heavy: [here about 100 residues without letters]VHPNPNPNPNSPDGGSGGSLRRSSCFGGRMDRIGAQSGLGCNSFRYGSYNPNPNPNPHVDVWGQGTTVTVSS[here human IgG1 constant region without letters] light: QSVLTQPPSVSGAPGQRVTISCTGSSSNIGAGYDVHWYQQLPGTAPKLLIYGNSNRPSGVPDRFSGSKSGTSASLAITGLQAEDEADYYCQSYDSSLSGVVFGGGTKLTVLGQPKAAPSVTLFPPSSEELQANKATLVCLISDFYPGAVTVAWKADSSPVKAGVETTTPSKQSNNKYAASSYLSLTPEQWKSHRSYSCQVTHEGSTVEKTVAPTECS	++ (relative log EC50<0.7 were assessed as very active)	–	–	–
B12: BNP (Hum28aa) engrafted antibody, CDRH3 (antibody) heavy: [here about 100 residues without letters]GITGTKKYQSSPDGGSGGMVQGSGCFGRKMDRISSSSGLGCKVLRRGSYSYTYNYAEYFQHWGQGTLVTVSS[here human IgG1 constant region without letters] light: QSVLTQPPSVSGAPGQRVTISCTGSSSNIGAGYDVHWYQQLPGTAPKLLIYGNSNRPSGVPDRFSGSKSGTSASLAITGLQAEDEADYYCQSYDSSLSGVVFGGGTKLTVLGQPKAAPSVTLFPPSSEELQANKATLVCLISDFYPGAVTVAWKADSSPVKAGVETTTPSKQSNNKYAASSYLSLTPEQWKSHRSYSCQVTHEGSTVEKTVAPTECS	–	–	–	++ (relative log EC50<0.7 were assessed as very active)
55: ANP engrafted antibody, CDRH2 (antibody) heavy: EVQLLESGGGLVQPGGSLRLSCAASGFTFSSYAMSWVRQAPGKGLEWVSAISGPNPNKNPNPNPGSGGSLRRSSCFGGRMDRIGAQSGLGCNSFRYGSNPNENPNPNPGSTYYADSVKGRFTISRDNSKNTLYLQMNSLRAEDTAVYYCAKLTGAEYFQHWGQGTLVTVSS[here human IgG1 constant region without letters] light: QSVLTQPPSVSGAPGQRVTISCTGSSSNIGAGYDVHWYQQLPGTAPKLLIYGNSNRPSGVPDRFSGSKSGTSASLAITGLQAEDEADYYCQSYDSSLSGVVFGGGTKLTVLGQPKAAPSVTLFPPSSEELQANKATLVCLISDFYPGAVTVAWKADSSPVKAGVETTTPSKQSNNKYAASSYLSLTPEQWKSHRSYSCQVTHEGSTVEKTVAPTECS	++ (relative log EC50<0.7 were assessed as very active)	–	–	–

— patent publication US12331094B2 (Bayer Aktiengesellschaft, priority 2018, dated 2025)
